{"source": "patent US20200362031A1", "about": "(BIO TECHNE, published 2020)", "biological_target": "T1, Recombinant human VSIG3 Fc Chimera (human)", "T1 construct": "also called rhVSIG3; rhVSIG-3", "T1 chain": "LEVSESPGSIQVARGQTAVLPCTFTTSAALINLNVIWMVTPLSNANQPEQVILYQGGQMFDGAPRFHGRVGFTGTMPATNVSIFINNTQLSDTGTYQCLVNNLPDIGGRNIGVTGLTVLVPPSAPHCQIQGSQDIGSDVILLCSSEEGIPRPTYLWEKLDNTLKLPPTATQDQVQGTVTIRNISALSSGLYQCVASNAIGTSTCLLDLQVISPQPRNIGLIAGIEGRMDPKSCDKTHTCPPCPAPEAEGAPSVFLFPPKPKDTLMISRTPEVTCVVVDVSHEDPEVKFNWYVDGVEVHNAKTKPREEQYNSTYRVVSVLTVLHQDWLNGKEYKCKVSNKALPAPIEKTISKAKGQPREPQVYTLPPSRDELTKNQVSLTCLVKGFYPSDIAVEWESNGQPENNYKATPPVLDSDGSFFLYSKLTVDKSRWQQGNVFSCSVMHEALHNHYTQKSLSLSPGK", "assay": "AVEXIS: VSIG3-Fc bait on protein A plate, VISTA-COMP-AlkPhos prey, alkaline phosphatase read at 650 nm", "procedure": "The avidity-based extracellular interaction screen (AVEXIS) was modified to screen for antibodies against VSIG3 that block the interaction between recombinant human VSIG3 (rhVSIG3) and VISTA. […] After capturing VSIG3-Fc bait on protein A coated plates, wells were incubated individually with a monoclonal antibody against VSIG3. Conditioned media containing the oligomeric prey protein fused to the COMP helical oligomer and alkaline phosphatase was then added, incubated, and washed, and the interaction was quantitatively measured by detection of alkaline phosphatase activity using the BLUEPHOS reagent (KPL/Sera Care, Milford, Mass.).\nRat and mouse monoclonal antibodies recognizing human VSIG3 were generated and tested for their ability to block a VSIG3-VISTA interaction. AVEXIS assay screening for antibody blockade of the VSIG3-VISTA interaction was conducted as described above. Briefly, the bait protein, VSIG3-Fc, was captured on Protein A coated plates and blocked without or with antibodies at 10 μg/mL. […] The prey protein, multimeric VISTA with alkaline phosphatase, was incubated in the presence of anti-VSIG3 antibodies. After washing, the interaction between VSIG3 and VISTA was measured using alkaline phosphatase substrate and quantified by measuring the absorbance at 650 nm.", "data": [{"binder": "VISTA([…])-COMP-AlkPhos-Flag/His (other, AVEXIS prey, used as conditioned medium; The entry starts at residue 1 (leader included); no cleavage site is stated; also called multimeric VISTA with alkaline phosphatase; VISTA ectodomain (ECD) coupled to COMP helix and alkaline phosphatase) [about 150 residues not written out]GSENLYFQGNSGGGSGGGTGGGDLAPQMLRELQETNAALQDVRELLRHRVKEITFLKNTVMECDACGLDRNLPPLAPLGPIIPVEEENPDFWNREAAEALGAAKKLQPAQTAAKNLIIFLGDGMGVSTVTAARILKGQKKDKLGPEIPLAMDRFPYVALSKTYNVDKHVPDSGATATAYLCGVKGNFQTIGLSAAARFNQCNTTRGNEVISVMNRAKKAGKSVGVVTTTRVQHASPAGTYAHTVNRNWYSDADVPASARQEGCQDIATQLISNMDIDVILGGGRKYMFRMGTPDPEYPDDYSQGGTRLDGKNLVQEWLAKRQGARYVWNRTELMQASLDPSVTHLMGLFEPGDMKYEIHRDSTLDPSLMEMTEAALRLLSRNPRGFFLFVEGGRIDHGHHESRAYRALTETIMFDDAIERAGQLTSEEDTLSLVTADHSHVFSFGGYPLRGSSIFGLAPGKARDRKAYTVLLYGNGPGYVLKDGARPDVTESESGSPEYRQQSAVPLDEETHAGEDVAVFARGPQAHLVHGVQEQTFIAHVMAFAACLEPYTACDLAPPAGTTDDYKDDDDKHHHHHH", "values": [{"measurement": "binding result", "value": "binds"}]}]}
